Measurements from a collection of fitness landscapes (doi:10.1016/j.celrep.2020.107928).
The full ranking holds about 81,000 sequences; the median of “one-hybrid fitness for binding NBS DNA” is about -0.1, and the highest 2% start at about 0.36. The list shows a part of the results.

B1: Caulobacter ParB omega fusion; a variant is named by its letters at X, in order, B8GW30 (parent)
chain: MESVVVGEPGMSEGRRGLGRGLSALLGEVDAAPAQAPGEQLGGSREAPIEILQRNPDQPRRTFREEDLEDLSNSIREKGVLQPILVRPSPDTAGEYQIVAGERAWRAAQRAGLKTVPIMVRELDDLAVLEIGIIENVQRADLNVLEEALSYKVLMEKFERTQENIAQTIGKSXSHVANXMRLLXLPDEVQSYLVSGELTAXHARAIAAAADPVALAKQIIEGGLSVRETEALARKAPNLSAGKSKGGRPPRVKDTDTQALESDLSSVLGLDVSIDHRGSTGTLTITYATLEQLDDLCNRLTRGI

Variants of: B1
Experiment: one-hybrid fitness for binding NBS DNA (the Noc-binding site; scaled: cognate 1, non-cognate 0); higher = stronger binding
Conditions: with NBS DNA site
Procedure, shortened: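 On M9-minus-histidine containing 0.1 mM IPTG and 5 mM 3-AT, E. coli USO cells with a HIS3 reporter, site 19 bp from the promoter, grew 48 hours at 37°C to select Caulobacter ParB libraries randomised at four specificity codons. Plasmids from before and after were Illumina-sequenced, with three replicate libraries pooled and variants under 10 reads left out. Fitness is the log change in variant-to-wild-type read ratio, rescaled against cognate and non-cognate.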

one-hybrid fitness for binding NBS DNA, 0.46:
RCCS

one-hybrid fitness for binding NBS DNA, 0.326:
IRHR

one-hybrid fitness for binding NBS DNA, 0.378:
QYWT

one-hybrid fitness for binding NBS DNA, 0.295:
TPVS

one-hybrid fitness for binding NBS DNA, 0.569:
QYKH

one-hybrid fitness for binding NBS DNA, 0.258:
QCHY

one-hybrid fitness for binding NBS DNA, 0.202:
ARRT

one-hybrid fitness for binding NBS DNA, 0.211:
RFQS

one-hybrid fitness for binding NBS DNA, 0.432:
QRWA

one-hybrid fitness for binding NBS DNA, 0.333:
RIRH

one-hybrid fitness for binding NBS DNA, 0.212:
KCKT
KKAR
TDKR

one-hybrid fitness for binding NBS DNA, 0.22:
PHKR

one-hybrid fitness for binding NBS DNA, 0.468:
RMSR

one-hybrid fitness for binding NBS DNA, ≤ 0.2:
RTAP
TDQL
TTHF
QKDI
IKMC
LDFI
VTMY
FTHG
TLNA
YNNG
DTNP
KAIC
LMNV
NGCS
NHKG
NWHQ
HSYL
WSSR
IVMF
PDHK
LTCS
KREF
CPPA
DSAV
RPGN
CTDV
LKDV
DTMC
HACN
FETN
ANFG
AHHK
VMAE
RLAV
ASAY
YLQF
LSAS
VYRN
PSES
TNTH
TKLW
HAQF
MKHG
WGTV
TALF
PTQF
RMEI
ATWG
MNAS
FWSC
MKIR
TEKL
LQRG
QPAW
DRTS
GLLW
ATTS
RGQS
FIER
ECPE
QWQI
EGYS
FTCC
FSRA
DRCG
HKYC
EFAL
QAYG
QFLA
ERSP
IHST
YPQG
RSVH
PPGG
GPWL
NPWG
KTPS
TGSD
MNLS
WVDG
RSPT
PMMD
PSMG
LLDV
IVKL
CVRG
VIMG
VSAI
VWMR
GRPP
HVTC
SPAE
CLTA
FDVL
LDMC
PLYD
QNDG
PTNV
PFGG
YYAT
LNHD
YCPR
PRCV
SLCI
SELL
GTMF
LRLM
EPRG
KENS
LWIT
HGNT
DAQQ
NFGC
RITW
VARK
MAPR
MLSC
QRFI
GPFR
RMEG
HYTG
RCNN
HTFG
RMHC
AYVW
TNTE
EAHE
CNLA
AQWT
SLSG
PGPA
SGGR
LNQT
WHGS
RDCC
VNDL
PTSN
WEHR
WSWD
TITK
MDTS
YVLC
VVSG
DSTW
TDEP
SPTY
GSHE
LSWA
ACIS
RFEG
PFTD
LDSS
LCLR
LFKT
YSPS
ESES
EMLV
DMCT
ESCV
YFSG
GNCN
PKSY
SYQA
YQGM
IEPT
IHKP
SKIT
WLWC
RGSM
PSIG
RGAC
HIPT
HNPP
HGQK
GPPY
VMLF
TNKG
SVNA
HCLI
CSTN
ANMC
RCVN
KMYR
GRHM
RAFA
LNDM
VTVQ
ETAY
EIIS
PANV
DTAD
YSVR
SSVD
PWMT
ENTR
RNSI
KILV
HKCT
YEVR
AQAP
CHKS
EYVS
NTWF
VAQF
HKYG
RGAY
YNCT
GNQV
GHDT
MGHE
QMQE
TSHF
QIVI
ADGP
DWSC
RQFL
VPIT
PQTG
TAYI
EGNL
LWVC
MEWG
TFVS
NVSK
APYT
VPLM
VPQA
LFSR
QTTW
CYMY
TCTR
PDEY
ARHD
IARF
LINV
QVCC
CCAL
VHKG
RNVK
RSFA
TMKF
MYHE
QSPS
HVRA
KKAE
IAYR
HVMV
GLSN
WRPV
HRDR
QMLP
SSNH
DVMY
GCAG
VKDF
RSHA
LHRH
PSYI
DTTT
TIPF
RMHF
RIMQ
AHRW
QYAM
SSAF
QPLM
GYYS
YNHF
HTLA
DCRK
MYTN
MNYL
LPYK
LHYC
QYPV
PRTK
LRLY
YSGR
HPDM
QLNW
QHIN
PITN
NKPL
FLMC
PSAI
EVMG

one-hybrid fitness for binding NBS DNA, 0.428:
QQQS

one-hybrid fitness for binding NBS DNA, 0.305:
KRPT

one-hybrid fitness for binding NBS DNA, 0.525:
RRQY

one-hybrid fitness for binding NBS DNA, 0.435:
QKFR

one-hybrid fitness for binding NBS DNA, 0.374:
QRSM
